Reference: PubChem BioAssay (Tox21)
Where “and” joins values, the source holds several entries; their conditions need not be identical. Equal values may be shown once. This list was built around the results that the source calls inconclusive (neither active nor inactive); the mix of calls is not that of the screen. For some of these results: Potencies beside an inconclusive call are fits to weak or partial responses and may not hold up. Calls of active or inactive are those of the source. Unless noted, calls come from the whole dose curve; as a rule, active = well fitted curve in the direction sought with a large enough effect in the repeat runs; inconclusive = weak or mixed curves; inactive = no such curve, though single readings can be large; an effect the other way counts as inactive or inconclusive.

Columns and labels:
[1] = qHTS assay to identify small molecule agonists of H2AX (AID 1224845; active = well fitted activation curve with a large enough effect in the signal ratio in the repeat runs, not every such curve was filed as active; inconclusive = weak or mixed curves; the % refers to the signal ratio); details: CHO-K1 phospho-H2AX Ser139 HTRF, 3 h; series mostly up to 154 µM
Outline: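 Phospho-H2AX Ser139 measured by HTRF (ex 320 nm; em 665 and 620 nm) after 24 hr antibody incubation. Compounds, 15 concentrations, 0.76% DMSO, were applied to CHO-K1 cells for 3hr at 37C before lysis.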

[2] = qHTS assay to identify small molecule agonists of the hypoxia (HIF-1) signaling pathway (AID 1224846; active = well fitted activation curve with a large enough effect in the signal ratio in the repeat runs, not every such curve was filed as active; inconclusive = weak or mixed curves; the % refers to the signal ratio); details: HRE-bla ME-180 cells, beta-lactamase ratio, 17 h; activation: at 76.8 µM (top of the series) unless noted
Outline: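 Cell line: CellSensor HRE-bla ME-180; 2,000 cells/well; 0.5% dialyzed FBS; 5 h preincubation; DMSO compound pin transfer; 17 h, 37C, 5% CO2; CCF4-AM added; bla FRET signal scored for activation.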

[3] = qHTS RealTime-Glo MT Cell Viability Assay in HepG2 cells - 24 hour (AID 1224867); note: nearly all actives have a fitted effect of over 50% in size
Outline: (§1)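 Real-time, nonlytic viability: 600 HepG2 cells/well mixed with NanoLuc enzyme plus prosubstrate; 5 h settle, compound (DMSO) added by pintool; luminescence monitored over 40 h at 37 C.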

[4] = qHTS RealTime-Glo MT Cell Viability Assay in HEK293 cells - 32 hour (AID 1224868); note: nearly all actives have a fitted effect of over 50% in size
Outline: (§2)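 Cells + reagent dispensed (600 cells/well, HEK293) → 5 h at 37 C/5% CO2 → 23 nL compound in DMSO pinned → 40 h at 37 C → luminescence read at 0, 8, 16, 24, 32, 40 h.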

[5] = qHTS RealTime-Glo MT Cell Viability Assay in HepG2 cells - 40 hour (AID 1224870); note: nearly all actives have a fitted effect of over 50% in size
Outline: (§3)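 Real-time viability: cells seeded at 600 per well together with NanoLuc and cell-permeant prosubstrate, compounds added after 5 h incubation. Luminescence tracked at 0, 8, 16, 24, 32 and 40 h of exposure.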

[6] = A CellTox Green Cytotoxicity Assay to monitor cytotoxicity in HEK293 cells - 40 hour (AID 1224871); note: nearly all actives have a fitted effect of over 45% in size
Outline: (§4)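 Nonlytic real-time cytotoxicity: HEK293 + CellTox Green reagent plated, 5 h preincubation, pintool compound addition (23 nL in DMSO), 37 C for 40 h, fluorescence measured at successive time points.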

[7] = qHTS RealTime-Glo MT Cell Viability Assay in HEK293 cells - 40 hour (AID 1224874); details: RealTime-Glo luminescence; max response: stronger effect = lower value; note: nearly all actives have a fitted effect of over 50% in size
Outline: (§5)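 Cells were seeded together with NanoLuc luciferase and a prosubstrate that viable cells reduce to a luciferase substrate. After a 5 h incubation at 37 C/5% CO2, compounds were added and luminescence was measured repeatedly during 40 h of treatment.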

[8] = qHTS RealTime-Glo MT Cell Viability Assay in HepG2 cells - 32 hour (AID 1224877); note: nearly all actives have a fitted effect of over 55% in size
Outline: as §1

[9] = A CellTox Green Cytotoxicity Assay to monitor cytotoxicity in HepG2 cells - 24 hour (AID 1224878); note: nearly all actives have a fitted effect of over 45% in size
Outline: (§6)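 Read-out is fluorescence of a cyanine dye excluded from live cells that stains DNA of dead HepG2 cells, with signal proportional to cytotoxicity. Plates were read at 0, 8, 16, 24, 32 and 40 h after compound addition.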

[10] = A CellTox Green Cytotoxicity Assay to monitor cytotoxicity in HEK293 cells - 32 hour (AID 1224881); note: nearly all actives have a fitted effect of over 40% in size
Outline: as §4

[11] = qHTS assay to identify small molecule antagonists of the estrogen related receptor (ERR) signaling pathway from Tox21 library (AID 1224848); note: nearly all actives have a fitted effect of over 50% in size
Outline: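 Reading was by luminescence 30 min after ONE-Glo addition. Before that, ERR cells at 2,000 per well had rested 6 h at 37 C/5% CO2 and then received pin-tooled compounds in DMSO for 18 h at 37 C.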

[12] = qHTS assay to identify small molecule agonists of H2AX - cell viability counter screen (AID 1224847; calls by dose curve; note: nearly all actives have a fitted effect of over 30% in size)
Outline: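 Cytotoxicity counter screen in wild-type CHO-K1 cells: a 3 hr compound treatment at 37C across 15 concentrations, followed by CellTiter-Glo luminescence to gauge viable cells.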

[13] = A CellTox Green Cytotoxicity Assay to monitor cytotoxicity in HEK293 cells - 24 hour (AID 1224875); note: nearly all actives have a fitted effect of over 45% in size
Outline: as §4

[14] = A CellTox Green Cytotoxicity Assay to monitor cytotoxicity in HepG2 cells - 16 hour (AID 1224876); note: nearly all actives have a fitted effect of over 45% in size
Outline: as §6

[15] = A CellTox Green Cytotoxicity Assay to monitor cytotoxicity in HepG2 cells - 40 hour (AID 1224879); note: nearly all actives have a fitted effect of over 40% in size
Outline: as §6

[16] = qHTS RealTime-Glo MT Cell Viability Assay in HEK293 cells - 16 hour (AID 1224872); note: nearly all actives have a fitted effect of over 50% in size
Outline: as §2

[17] = qHTS RealTime-Glo MT Cell Viability Assay in HepG2 cells - 8 hour (AID 1224873); note: nearly all actives have a fitted effect of over 55% in size
Outline: as §3

[18] = qHTS RealTime-Glo MT Cell Viability Assay in HEK293 cells - 0 hour (AID 1224880); note: nearly all actives have a fitted effect of over 45% in size
Outline: as §5
Potency is the fitted concentration of half-maximal effect; tags give direction and shape of the fitted curve or compound fluorescence and quenching.

Structure (SMILES)	Potency [1]	Potency [2]	Potency [3]	Potency [4]	Potency [5]	Potency [6]	Potency [7]	Potency [8]	Potency [9]	Potency [10]	Potency [11]	Potency [12]	Potency [13]	Potency [14]	Potency [15]	Potency [16]	Potency [17]	Potency [18]
CN(C/C=C/c1ccccc1)Cc1cccc2ccccc12	active: 55.2 µM	inconclusive: 33.8 µM [falling, partial curve, poor fit]	inconclusive: 12 µM [falling, partial curve]	inconclusive: 23.9 µM [cytotoxic, partial curve, poor fit]	inconclusive: 53.5 µM [falling, partial curve, poor fit]	active: 21.3 µM	inconclusive: 23.9 µM [cytotoxic, partial curve, poor fit]	inconclusive: 15.1 µM [cytotoxic, partial curve]	active: 23.9 µM	active: 19 µM	–	–	–	–	–	–	–	–
c1cc(C(c2ccc(OCC3CO3)cc2)C(c2ccc(OCC3CO3)cc2)c2ccc(OCC3CO3)cc2)ccc1OCC1CO1 (centres undefined)	inconclusive: 16.6 µM [fluorescent, full curve] and inconclusive: 40.1 µM [fluorescent]	inconclusive: 48.9 µM [fluorescent, single point]	–	inconclusive: 71.8 µM [cytotoxic, single point]	–	inconclusive: 71.8 µM [activator, single point]	inconclusive: 57 µM [cytotoxic, partial curve]	–	–	–	inconclusive: 71.2 µM [inhibitor, partial curve]	–	–	–	–	–	–	–
COc1ccc2cc(S(=O)(=O)N[C@H](CC(=O)N[C@H](Cc3ccc(CN4[C@H](C)CCC[C@@H]4C)cc3)C(=O)N(C)C(C)C)c3ccc4c(c3)OCO4)ccc2c1	inconclusive: 120 µM [activator, single point]	inconclusive: 5.2 µM [rising, partial curve]	–	active: 26.1 µM	–	–	active: 26.1 µM	active: 52 µM	active: 52 µM	–	–	inconclusive: 120 µM [cytotoxic, single point]	inconclusive: 52 µM [activator, single point]	active: 52 µM	active: 52 µM	–	–	–
C1CN(SSN2CCOCC2)CCO1	inconclusive: 56.1 µM [activator, partial curve] and inconclusive: 35.7 µM [activator, full curve]	inconclusive: 61 µM [falling, single point]	inconclusive: 54.9 µM [falling, single point]	inconclusive: 61 µM [cytotoxic, single point]	inconclusive: 54.9 µM [falling, single point]	–	inconclusive: 54.4 µM [cytotoxic, single point]	inconclusive: 54.9 µM [cytotoxic, single point]	inconclusive: 61.6 µM [activator, single point]	–	–	inconclusive: 126 µM [cytotoxic, single point] and inactive	–	inconclusive: 61.6 µM [activator, partial curve, poor fit]	inconclusive: 54.9 µM [activator, single point]	inconclusive: 19.5 µM [rising, single point]	inconclusive: 54.4 µM [falling, single point] and inconclusive: 54.9 µM [falling, single point]	–
O=C(O)c1cc(O)c2ccccc2c1O	inconclusive: 56.6 µM [falling, partial curve]	inconclusive: 11 µM [full curve]	active: 19.5 µM	active: 43.6 µM	–	–	active: 38.9 µM	active: 21.9 µM	active: 43.6 µM	–	–	–	inconclusive: 19.5 µM [activator, full curve, poor fit]	active: 43.6 µM	active: 24.5 µM	active: 38.9 µM	–	inconclusive: 11 µM [falling, full curve]
CCCCOCCOC(=O)c1ccccc1C(=O)OCCOCCCC	inconclusive: 124 µM [activator, single point] and inactive	inconclusive: 53.8 µM	–	inconclusive: 47.9 µM [cytotoxic, partial curve] and inactive	–	–	inconclusive: 47.9 µM [cytotoxic, partial curve, poor fit]	–	–	–	–	inconclusive: 113 µM [cytotoxic, partial curve]	–	–	–	inconclusive: 42.7 µM [cytotoxic, partial curve]	–	–
C=CC(=O)OCCn1c(=O)n(CCOC(=O)C=C)c(=O)n(CCOC(=O)C=C)c1=O	active: 25.3 µM	inconclusive: 21.9 µM [falling, full curve]	active: 21.9 µM	–	–	–	–	active: 24.5 µM	–	–	–	inconclusive: 45 µM [rising, partial curve]	–	–	–	active: 11 µM	–	inactive
